According to paper PMC4336329 (PLoS ONE, 2015):
The whole screen tested about 310,000 compounds, of which about 2,200 (0.71%) showed an effect of 50% or more. The effect is printed as a negative number. Some of the results follow.

Each compound was assayed against human ether-à-go-go-related gene (hERG) potassium channel (human, UniProt Q12809) (assay: primary screen, population patch clamp on CHO cells stably expressing hERG).
Chain of human ether-à-go-go-related gene (hERG) potassium channel (Q12809 whole entry, looked up): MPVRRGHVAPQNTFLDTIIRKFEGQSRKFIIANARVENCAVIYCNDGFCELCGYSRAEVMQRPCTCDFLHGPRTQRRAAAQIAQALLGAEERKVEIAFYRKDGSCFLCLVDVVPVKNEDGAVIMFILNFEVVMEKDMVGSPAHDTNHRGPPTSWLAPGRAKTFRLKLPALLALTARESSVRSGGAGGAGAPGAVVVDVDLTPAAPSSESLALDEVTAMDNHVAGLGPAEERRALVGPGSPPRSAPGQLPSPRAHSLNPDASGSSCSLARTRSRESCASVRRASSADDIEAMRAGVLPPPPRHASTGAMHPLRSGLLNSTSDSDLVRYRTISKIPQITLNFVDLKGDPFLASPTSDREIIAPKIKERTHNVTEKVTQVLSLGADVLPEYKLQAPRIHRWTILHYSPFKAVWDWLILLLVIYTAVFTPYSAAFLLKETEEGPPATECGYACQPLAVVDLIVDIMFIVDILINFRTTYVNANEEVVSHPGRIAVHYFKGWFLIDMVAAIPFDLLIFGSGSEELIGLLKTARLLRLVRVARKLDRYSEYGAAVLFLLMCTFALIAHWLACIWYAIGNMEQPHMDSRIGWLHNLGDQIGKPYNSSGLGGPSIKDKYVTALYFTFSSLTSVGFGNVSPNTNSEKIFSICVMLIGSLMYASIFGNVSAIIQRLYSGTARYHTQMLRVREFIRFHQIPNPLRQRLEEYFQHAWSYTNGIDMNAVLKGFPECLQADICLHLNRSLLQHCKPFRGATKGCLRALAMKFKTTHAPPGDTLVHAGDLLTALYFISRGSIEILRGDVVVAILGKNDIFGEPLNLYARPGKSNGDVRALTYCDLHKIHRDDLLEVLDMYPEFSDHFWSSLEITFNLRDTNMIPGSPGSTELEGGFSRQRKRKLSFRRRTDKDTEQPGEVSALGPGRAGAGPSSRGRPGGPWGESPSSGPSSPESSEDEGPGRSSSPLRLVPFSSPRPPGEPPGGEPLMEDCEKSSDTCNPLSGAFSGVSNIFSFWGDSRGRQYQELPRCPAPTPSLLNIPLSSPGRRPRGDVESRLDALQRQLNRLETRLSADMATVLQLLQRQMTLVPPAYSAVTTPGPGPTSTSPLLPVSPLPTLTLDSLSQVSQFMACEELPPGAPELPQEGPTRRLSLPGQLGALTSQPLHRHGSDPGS

Structure (SMILES) | hERG current change (%, negative = inhibition) at 1uM [%]
CC(C)(C)CN1CCC(Oc2cccc(C(=O)NCCCOc3cccnc3)c2)CC1 | 5.15
O=C(CN1CCCCCC1)Nc1ccc(Cl)cn1 | 6.51
CC(C)NC(=O)c1sc(=S)n2c1[nH]c(=O)c1ccc(C(=O)NCCc3ccc(Cl)cc3)cc12 | 3.15
CCOc1cc(CNc2ccc(O)cc2)ccc1OCc1ccc(Cl)cc1Cl | -0.965
C/C=C/C(=O)N1c2ccccc2C(C)=CC1(C)C | 11
COc1ccc(-c2nnc3sc(-c4ccco4)nn23)cc1OC | 12.9
CC1CCCCC12NC(=O)N(CC(=O)OCc1cccc(F)c1)C2=O (stereo not shown) | 5.95
COc1ccc(N2C(=O)NC3CC2(C)Oc2ccccc23)cc1 (stereo not shown) | 13.6
O=C(NCC1CCCO1)C1C2C=CC3(CN(Cc4cccs4)C(=O)C13)O2 (stereo not shown) | -5.42
Cc1cc(OCC(=O)Nc2ccc(CN3CCCCC3)cc2)ccc1Cl | -22
COc1cc(C(=O)Nc2ccc(O)cc2)ccc1OC(C)=O | -3.53
CC(C)COC(=O)c1ccc2c(c1O)C(=O)c1ccccc1C2=O | 6.47
CS(=O)(=O)Nc1ccc(C(=O)NCCSCc2ccccc2)cc1 | -18.4
CCN(CC)CCNc1ccc2nnc(CCNS(=O)(=O)c3ccc(C)cc3)n2n1 | 13.9
Cc1cc(NC(=O)CC2(CC(=O)O)CCCC2)n(C)n1 | 15.8
Cc1ccc(-c2ccc(=O)n(CC(=O)NCCN3CCCCC3C)n2)cc1 (stereo not shown) | 4.17
CCOc1cc(C2C3=C(CCCC3=O)NC3=C2C(=O)CCC3)cc(Cl)c1O | -5.15
CN1CCN(CC(O)COc2ccc(S(=O)(=O)N3CCOCC3)cc2)CC1 (stereo not shown) | 13.8
CCOC(=O)CCNC(=O)Nc1ccc2nc(C)n(Cc3cccc(Cl)c3)c(=O)c2c1 | 3.88
CCC(C)c1ccccc1NC(=O)C(C)Sc1n[nH]c(N)n1 (stereo not shown) | 11.9
COc1ccc(NC(=O)C2CCCO2)cc1OC (stereo not shown) | 2.16
O=C(c1ccccc1)c1ccc(OC(=O)N2CCCC2)cc1 | -0.153
O=C(COc1ccccc1/C=C1/NC(=O)NC1=O)Nc1ccccc1 | 9.12
CC(=O)Nc1ccc(C(=S)NCC2(N(C)C)CCCCC2)cc1 | 6.81
NC(=O)C1CCN(CCC(=O)Nc2ccc(F)c(F)c2)CC1 | 13.8
